# Data taken from PubChem BioAssay AID2147 (National Center for Advancing Translational Sciences (NCATS), 2009).
# Hit rate of the full screen: of about 230,000 compounds, about 3,600 (1.6%) were called active. The inconclusive results got no clear call from the source; some entries with a clear call stand among them for comparison. Calls come from the whole dose curve; as a rule, active = well fitted inhibition curve with a large enough effect (not every such curve was filed as active); inconclusive = small, poorly fitted or top-dose-only effect, or another doubt; inactive = no such curve, though single readings can be large or run the other way. Where the call is inconclusive, the potency comes from a doubtful curve fit.
# Target: Lysine-specific demethylase 4E (Homo sapiens) (UniProt B2RXH2)
# Assay: qHTS Assay for Inhibitors of Human Jumonji Domain Containing 2E (JMJD2E)
# Settings: JMJD2E catalytic domain, FDH-coupled NADH fluorescence (FDH is formaldehyde dehydrogenase); series mostly up to 57.1 µM; activity change, negative = inhibition: at the top concentration
# Note: nearly all actives have a fitted effect of over 50% in size.
# Potency is the fitted concentration of half-maximal effect; tags give direction and shape of the fitted curve.
# 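Throughout, for activity change, negative = inhibition: 0% = wells with enzyme and -100% = buffer wells without enzyme.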
# UniProt B2RXH2, sequence (B2RXH2 whole entry, looked up, the tested form may be a part): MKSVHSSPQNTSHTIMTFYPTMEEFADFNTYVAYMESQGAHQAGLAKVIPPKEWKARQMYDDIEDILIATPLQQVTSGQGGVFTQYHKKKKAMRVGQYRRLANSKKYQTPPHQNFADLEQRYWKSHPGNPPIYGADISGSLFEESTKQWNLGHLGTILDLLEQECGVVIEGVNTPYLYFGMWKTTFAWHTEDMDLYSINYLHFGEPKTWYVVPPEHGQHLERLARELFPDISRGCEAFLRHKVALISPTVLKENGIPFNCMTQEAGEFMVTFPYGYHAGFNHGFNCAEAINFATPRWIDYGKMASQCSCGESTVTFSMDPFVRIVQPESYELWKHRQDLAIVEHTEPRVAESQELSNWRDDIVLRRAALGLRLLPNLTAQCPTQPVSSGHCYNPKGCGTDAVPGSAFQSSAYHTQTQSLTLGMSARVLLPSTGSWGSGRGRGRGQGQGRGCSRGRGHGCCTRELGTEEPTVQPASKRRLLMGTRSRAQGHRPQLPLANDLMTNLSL
SMILES,Potency,"activity change, negative = inhibition"
O=C1/C(=C/c2ccncc2)SC(=S)N1Nc1ccccc1,"inconclusive: 28.2 µM [inhibitor, single point]",
COc1cc(NC(=O)Cn2ccsc2=N)c(C)cc1[N+](=O)[O-],"inconclusive: 39.8 µM [inhibitor, single point]",
CC(C)CCNC(=O)C1CC(c2ccc(C(F)(F)F)cc2)=NO1 (stereo not given),,inactive: 1.19%
COc1ccc(N2CCc3c(C)nc(SC)nc32)cc1,"inconclusive: 35.5 µM [inhibitor, single point]",
O=C(c1cccc2ccccc12)N1CCC(N2CCN(c3ccccc3)CC2)CC1,"inconclusive: 39.8 µM [inhibitor, single point]",
COCCn1c(C)cc(C(=O)CN2CCCCC2)c1C,"inconclusive: 0.251 µM [inhibitor, full curve]",
COc1ccc2c(c1)CCN1C2CCN2C(=O)CCC21 (stereo not given),"inconclusive: 3.55 µM [inhibitor, full curve]",
Cn1ccnc1SCc1ccc([N+](=O)[O-])cc1,,inactive: -2.45%
COc1ccccc1NC(=O)Nc1ccc(-n2ccc(C(F)(F)F)n2)cc1,"inconclusive: 39.8 µM [inhibitor, single point]",
CC1=CN2C(=N)/C(=C/c3ccc(C)o3)C(=O)N=C2S1,,inactive: 3.59%
COc1ccc2nc3oc(C(=O)NCc4cccs4)cc3cc2c1,"inconclusive: 15.8 µM [inhibitor, partial curve]",
Cc1ccc(NC(=O)/C=C/c2ccc3c(c2)OCO3)cc1S(=O)(=O)N1CCOCC1,"inconclusive: 35.5 µM [inhibitor, single point]",
Cc1ccc(-c2nc(N)sc2CC(=O)OCC(=O)N2C(C)CCCC2C)cc1 (stereo not given),,inactive: 3.77%
CCCC1C2CN(C(C)C)CC=C2C(C#N)=C(N)C1(C#N)C#N (stereo not given),"inconclusive: 31.6 µM [inhibitor, partial curve]",
CC(C)C(=O)Nc1ccc2c(c1)C(=O)NC2=O,"inconclusive: 31.6 µM [inhibitor, partial curve]",
Cc1ccc(NC(=O)CCNC(=O)c2ccc([N+](=O)[O-])cc2)cc1S(=O)(=O)N(C)C,,inactive: -0.721%
Clc1cccc(CSc2nc3ccncc3[nH]2)c1,,inactive: 8.03%
COc1ccc(CN2C(=O)c3cccc4cccc(c34)C2=O)cc1,"inconclusive: 8.91 µM [inhibitor, single point]",
CCN1CCCc2cc(CN(CCN3CCOCC3)C(=S)Nc3ccccc3C)ccc21,"inconclusive: 25.1 µM [inhibitor, single point]",
CN(C)c1nnc(-c2ccc(Cl)cc2)o1,"inconclusive: 28.2 µM [inhibitor, partial curve]",
